# Experimental data as given in PMC4336329 (PLoS ONE, 2015).
# The campaign covered roughly 310,000 compounds. About 14,000 (4.5%) showed an effect of 50% or more. The effect is printed as a negative number. The list shows a part of the results.
# Biological target: human ether-à-go-go-related gene (hERG) potassium channel (human, UniProt Q12809)
# Experiment: primary screen, population patch clamp on CHO cells stably expressing hERG
# 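Note: peak tail current of the secondary pulse compared with the same well before compound.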
# human ether-à-go-go-related gene (hERG) potassium channel, sequence (Q12809 whole entry, looked up): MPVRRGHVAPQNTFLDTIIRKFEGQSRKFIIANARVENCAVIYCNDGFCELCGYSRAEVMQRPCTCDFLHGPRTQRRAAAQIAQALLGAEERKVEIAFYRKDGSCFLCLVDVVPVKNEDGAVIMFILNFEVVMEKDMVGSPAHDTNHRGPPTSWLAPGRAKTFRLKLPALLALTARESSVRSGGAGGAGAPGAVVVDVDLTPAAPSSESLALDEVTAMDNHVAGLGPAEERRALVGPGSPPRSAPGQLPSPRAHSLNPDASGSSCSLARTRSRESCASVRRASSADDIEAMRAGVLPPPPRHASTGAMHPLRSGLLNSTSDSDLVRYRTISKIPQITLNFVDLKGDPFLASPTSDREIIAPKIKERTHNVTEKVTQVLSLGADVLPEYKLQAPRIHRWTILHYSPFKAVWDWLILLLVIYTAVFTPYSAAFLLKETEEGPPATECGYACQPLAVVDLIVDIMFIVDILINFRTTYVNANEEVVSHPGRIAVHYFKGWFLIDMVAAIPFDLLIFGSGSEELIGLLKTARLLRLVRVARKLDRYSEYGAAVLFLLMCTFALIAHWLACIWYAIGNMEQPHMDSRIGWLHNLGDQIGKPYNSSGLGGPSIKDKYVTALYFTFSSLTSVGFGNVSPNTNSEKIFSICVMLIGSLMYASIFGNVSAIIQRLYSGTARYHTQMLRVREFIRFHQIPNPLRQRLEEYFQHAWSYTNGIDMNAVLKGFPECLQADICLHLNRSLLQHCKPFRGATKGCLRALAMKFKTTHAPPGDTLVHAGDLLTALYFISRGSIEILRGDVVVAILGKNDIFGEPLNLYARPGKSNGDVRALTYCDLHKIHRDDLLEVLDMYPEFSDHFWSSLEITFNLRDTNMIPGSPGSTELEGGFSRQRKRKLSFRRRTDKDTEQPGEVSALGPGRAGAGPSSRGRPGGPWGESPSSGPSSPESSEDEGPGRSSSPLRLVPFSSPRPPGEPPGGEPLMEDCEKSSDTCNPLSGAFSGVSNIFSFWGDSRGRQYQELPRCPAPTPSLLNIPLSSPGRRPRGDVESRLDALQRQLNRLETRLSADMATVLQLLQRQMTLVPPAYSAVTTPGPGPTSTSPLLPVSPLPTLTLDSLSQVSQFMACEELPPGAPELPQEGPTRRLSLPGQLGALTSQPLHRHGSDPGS
row,SMILES,"hERG current change (%, negative = inhibition) at 10uM [%]"
1,O=c1[nH]nc(Cc2ccc3ccccc3n2)c2ccccc12,1.36
2,COc1ccc(C(C(=O)NC2CCCCC2)N(CC2CCCO2)C(=O)C2COc3ccccc3O2)cc1OC (stereo not drawn),-4.43
3,O=C(CSc1nc2ccccc2c(=O)n1NC(=O)c1ccccc1)c1ccccc1,-1.72
4,CCc1ccccc1NC(=O)C1CCCN(S(=O)(=O)c2ccc3c(c2)CC(C)N3C(C)=O)C1 (stereo not drawn),-9.94
5,CS(=O)(=O)N(CCc1ccccc1)CC(N)=O,1.17
6,COC(=O)c1c(NS(=O)(=O)c2ccccc2)csc1C,13.3
7,COc1ccc(-c2nc(SC)n(C(=O)c3ccco3)n2)cc1,13.7
8,Br.COc1ccc(-c2csc(NNC3=NCCCCC3)n2)cc1,-0.127
9,O=C(CN1C(=O)C2C3C=CC(C3)C2C1=O)Nc1ccc2nccnc2c1 (stereo not drawn),13.7
10,CCC(C)NC(=O)CN1C(=O)c2cccc3cccc1c23 (stereo not drawn),3.14
11,O=C(O)CC/C(=N\NC(=O)c1ccncc1)c1ccccc1,21.9
12,CCn1c(CNC(=O)c2ccccc2Cl)cc2ccccc21,17
13,COc1cc(OC)cc(C(=O)NCCN2CCOCC2)c1.O=C(O)C(=O)O,8.94
14,CCOC(=O)CNC(=O)CSc1ccc2nnc(-c3ccc(F)cc3)n2n1,-5.55
15,Cc1c(C(=O)O)sc(=S)n1-c1ccc(Cl)cc1,-9.29
16,COc1cc2[nH]c(C(=O)NCc3ccccc3)cc2c(OC)c1OC.Cl,13.1
17,Cn1c(=O)[nH]c(=O)c2c1nc1n2CCCN1CCc1ccccc1,-10.4
18,Cc1ccc(CN(CC(=O)NCc2ccc3c(c2)OCO3)C(=O)c2csnn2)cc1,-50.5
19,CN(C)c1nc(OCCNC(=O)COc2ccc(Cl)cc2Cl)nc(N2CCCCC2)n1,8.22
20,FC(F)(F)c1ccc(CNCCc2ccc3c(c2)OCO3)cc1.O=C(O)C(=O)O,-60.3
21,Cc1ccccc1C(=O)c1cccn1CC(=O)O,14.1
22,C=CCn1c(SCC(=O)Nc2cc(NC(C)=O)ccc2OC)nnc1-c1cccnc1,2.09
23,Cc1ccc(NC(=S)Nn2cnnc2)c(C)c1,12

row,SMILES,"hERG current change (%, negative = inhibition) at 10uM [%]"
1,O=C(N/N=C/c1ccc(Br)cc1)c1cc[n+]([O-])cc1,-21.2
2,O=C(COc1ccc(Br)cc1)Nc1ccc(NC(=O)c2ccccc2)cc1,-1.94
3,NC(=O)c1ccccc1NS(=O)(=O)Cc1ccc(Cl)cc1,-12.2
4,O=C(NCC(c1cccs1)N1CCOCC1)c1cc(-c2ccc(F)cc2)nc2ccccc12 (stereo not drawn),-55.9
5,CCC(CC)c1nnc(NC(=O)CC(C)c2ccccc2)s1 (stereo not drawn),12.3
6,COc1ccc(NC(=O)N2CCCCCC2)cc1,13
7,O=C(Cn1cnc([N+](=O)[O-])n1)N/N=C/c1cccc2ccccc12,2.05
8,O=C(Nc1ccc(C(=O)N2CCCCC2)cc1)c1ccc(Br)cc1,3.55
9,COc1ccccc1N(CC(=O)NCCSCc1cccc(C)c1)S(=O)(=O)c1ccccc1,-7.39
10,O=C(COC(=O)COc1ccc(Br)cc1)NCCC1=CCCCC1,-14
11,COc1ccccc1CCNC(=O)NC1CCCCC1,-12.1
12,COC(=O)[C@H](C)NC(=O)NCCC1=CCCCC1,7.48
13,CN1C(=O)NC(=O)/C(=C\C=C\c2ccccc2[N+](=O)[O-])C1=O,10.9
14,O=C(O)C1CCCN1S(=O)(=O)c1cccc2nsnc12 (stereo not drawn),23.9
15,Cc1nn(-c2ccc(N3CCCCC3)nn2)c(C)c1CCC(=O)Nc1ccc(F)cc1,-14.3
16,N#Cc1c(Nc2ccccc2Cl)s[nH]c1=O,1.91
17,CC(C)CCNC(=O)CCc1nnc2ccc(N3CCC(C)CC3)nn12,-24.8
18,O=C(Nc1ccc(C(=O)N2CCOCC2)cc1)Nc1cccc2ccccc12,23.4
19,CCC1CN(C(=O)NCc2ccccc2)c2cc(Cl)ccc2O1 (stereo not drawn),12.2
20,CC(C)c1ccc(NC2CCCN(C(=O)CN3CCOC3=O)C2)cc1 (stereo not drawn),11.1
21,COc1ccc(-n2c(O)c(/C(C)=N/N3CCCCCC3)c(=O)[nH]c2=O)cc1,-17.2
22,Cc1cccc(C)c1OCc1cc(C(=O)N2CCN3CCCC3C2)no1 (stereo not drawn),-19.5
23,COC(=O)C1=C(c2ccc(Cl)c(C(F)(F)F)c2)C[C@@H]2CC[C@H]1N2C(=O)NCc1ccco1,-13.6

row,SMILES,"hERG current change (%, negative = inhibition) at 10uM [%]"
1,COc1ccc(C(=O)N2CCc3[nH]nc(-c4ccccc4)c3C2)cc1,-8.79
2,Cn1c(=O)[nH]c(=O)c2[nH]c(N(Cc3ccccc3)Cc3ccccc3)nc21,-10.2
3,CN1CCN(NC(=O)c2cc([N+](=O)[O-])cc([N+](=O)[O-])c2)CC1,-2.5
4,O=C(COC(=O)C1=NNC(=O)CC1)NCCc1ccccc1,17.4
5,O=S(=O)(/N=C(\Sc1ccccc1)c1ccccc1)c1ccc(Cl)cc1,14.3
6,COc1cc(C(=O)NCCc2cc3c(OC)ccc(OC)c3[nH]c2=O)cc(OC)c1OC,-1.48
7,COc1cc2ccccc2cc1C(=O)NNC(=O)c1ccccc1O,7.31
8,CCOC(=O)CSc1nnc(Cn2nnc(-c3ccccc3)n2)n1C,5.87
9,Cn1c(SCc2ccccc2C#N)nnc1-c1ccncc1,7.11
10,Cn1c(=O)cc(SCC(=O)N2CCCC2)c2cc(Cl)ccc21,-10.1
11,CC(C)c1nnc(NC(=O)C2CCCO2)s1 (stereo not drawn),14.6
12,Cl.c1ccc(COc2cccc(CNCc3ccccn3)c2)cc1,-45.2
13,COc1ccc2c(c1)N(C)/C(=C1/SC(=S)N(NC(C)=O)C1=O)S2,13.4
14,Cc1cc(S(=O)(=O)NC2CCCC2)ccc1-n1cnnn1,31.9
15,CC/C(Cc1ccccc1)=N\NC(=O)c1cc(C)oc1C,2.03
16,Cc1ccc(OP(=O)(Nc2cccc(C)c2)Oc2ccc(C)cc2)cc1,11.5
17,Cc1ccccc1OCC(=O)Nc1ccc2oc(=O)ccc2c1,9.71
18,CN1CCC(N(C)S(=O)(=O)c2ccc(NC(=O)COc3ccc([N+](=O)[O-])cc3)cc2)CC1,-7.65
19,COc1ccc(NC(=O)c2c(C)nn(Cc3ccccc3)c2C)cc1S(=O)(=O)N(C)C,14.9
20,CCC(=O)NC(=S)Nc1ccc2oc(-c3ccc(OC)cc3)nc2c1,18.1
21,C/C=C/C=C\C(=O)Nc1cccc(C2=NOC3(C2)C[C@@H](C(N)=O)N(C(=O)c2cc([N+](=O)[O-])cc([N+](=O)[O-])c2C)C3)c1 (stereo partly drawn),14.1
22,CC(C)C(=O)NNC(=O)c1cc2sccc2s1,9.37
23,C/C(=N\NC(=O)c1nnn(-c2nonc2N)c1-c1ccc2c(c1)OCO2)c1ccc(C)cc1,26.1

row,SMILES,"hERG current change (%, negative = inhibition) at 10uM [%]"
1,O=C(O)c1ccc2c(=O)n3c(nc2c1)/C(=C/c1ccccc1C(F)(F)F)CCCC3,4.09
2,CC(C(=O)c1ccccc1)n1cnc2ccccc2c1=O (stereo not drawn),-2.46
3,COc1ccc2c(c1)c(=O)c(C(=O)c1ccc(C)cc1)cn2CC(=O)Nc1ccc(F)cc1,-10.1
4,COc1ccc(OC)c(CNC(=O)CCn2nc(C)c3c(C)n(-c4ccccc4)nc3c2=O)c1,4.54
5,Nc1ccc2sc(N)nc2c1,12.2
6,COc1ccc(S(=O)(=O)N2CCCCC2)cc1N(C)S(=O)(=O)c1ccccc1,-16
7,CCNC(=O)c1cnn(-c2ccccc2)c1-c1ccccc1,14.6
8,Cc1ccccc1NC(=O)c1cnn(-c2ccccc2)c1C,9.83
9,O=C(CN1C(=O)c2ccccc2C1=O)NCCc1c[nH]c2ccc(Cl)cc12,-0.54
10,CCC(C)N1C(=O)S/C(=C/c2ccc(Sc3nc4ccccc4[nH]3)o2)C1=O (stereo not drawn),13.6
11,Cc1cc(O)c(Sc2ccccc2)c(=O)o1,9.75
12,C/C(=N\NC(=O)c1c(Br)c(C)nn1C)c1cccc(NC(=O)c2ccccc2F)c1,11.1
13,CCC(=O)Nc1sc2c(c1C(N)=O)CCC2,-15.7
14,CN(C)S(=O)(=O)c1ccc(Cl)c(C(=O)NC2CCCCCCC2)c1,7.33
15,CCCCCCCCc1nc(=S)[nH][nH]1,18.7
16,Cc1ccc(CNC(N)=S)cc1,-1.2
17,O=C1C=C(c2ccc(Cl)cc2)C(=O)N1Nc1ccccc1,13.1
18,CCCCc1c(O)nc(N2CCN(Cc3ccccc3)CC2)[nH]c1=O,1.41
19,CC12COC3(C(=O)Nc4cccnc4)CC1CCC32C (stereo not drawn),-9.46
20,Cc1cc(Br)cc(Cl)c1OCC(=O)N1CCN(C(=O)c2ccco2)CC1,-63.3
21,O=C(CNC(=O)c1ccc2c(=O)n3c(nc2c1)CCC3)Nc1ccc(F)c(F)c1,-7.44
